# Measurements as given in PubChem BioAssay AID624296 (National Center for Advancing Translational Sciences (NCATS), 2012).
# Out of some 350,000 compounds screened, about 9,900 (2.8%) were called active. Inconclusive results, whose numbers are uncertain, are shown with a selection of clear calls. Calls come from the whole dose curve; as a rule, active = well fitted activation curve with a large enough effect; inconclusive = small, poorly fitted or top-dose-only effect; inactive = no such curve, though single readings can be large or run the other way. No potency is given beside an inconclusive call; the fits are too rough.
# Experiment: A quantitative high throughput screen for small molecules that induce DNA re-replication in MCF 10a normal breast cells. Note: nearly all actives have a fitted effect of over 50% in size.
# Settings: MCF 10A DNA re-replication, Hoechst nuclear intensity, 48 h; series mostly up to 46.1 µM
# Potency is the fitted concentration of half-maximal effect; tags give direction and shape of the fitted curve.
row,Compound,Potency
1,Cc1ccccc1OCC(=O)Nc1cc(S(=O)(=O)N2CCOCC2)ccc1N1CCCC1,inactive
2,Cc1ccc(NC(=O)C2CCN(C(=O)N3CCOc4ccccc43)CC2)cc1,inactive
3,Cc1ccc2c(C)ccc(O)c2n1,active: 20.6 µM
4,COc1ccc(COC(=O)c2ccc(C)c(S(=O)(=O)N3CCOCC3)c2)cc1F,inactive
5,O=C(O)c1ccccn1,"inconclusive [activator, single point]"
6,CC(=O)c1c(C)[nH]c(C2=NNC(=NC(C)(C)C)SC2)c1C,inactive
7,Cc1cc2c(cc1S(=O)(=O)N1CCN(c3cccc(C(F)(F)F)c3)CC1)OCC(=O)N2,active: 23.1 µM
8,Cc1ccc(-c2csc(NC(=O)CSc3nc4ccccc4[nH]3)n2)cc1,"inconclusive [activator, single point]"
9,Nc1nc(/C=C/c2cccnc2)nc(-c2ccccc2O)n1,"inconclusive [activator, partial curve]"
10,COc1ccc(S(=O)(=O)N2CCOCC2)cc1NC(=O)Cc1ccccc1Cl,inactive
11,COc1ccc(-c2ccn(-c3cccc(F)n3)n2)cc1,"inconclusive [activator, single point]"
12,O=C(CSc1ncc(-c2ccccc2)n1CC1CCCO1)N1CCCCC1 (stereo unspecified),"inconclusive [activator, partial curve, poor fit]"
13,Cc1sc2ncnc(N3CCN(c4ncccn4)CC3)c2c1C,"inconclusive [activator, single point]"
14,COc1ccc2c(c1)C(C)=CC(C)(C)N2S(=O)(=O)c1ccc(Br)cc1,"inconclusive [activator, full curve, poor fit]"
15,CC(=O)Nc1cccc(NC(=O)CSc2ccc(-c3ccccn3)nn2)c1,"inconclusive [activator, single point]"
16,CNC(=S)N/N=C/c1cn(CCOc2ccc(OC)cc2)c2ccccc12,"inconclusive [activator, partial curve, poor fit]"
17,CC(Sc1nnc(CN2CCCC2)n1Cc1ccccc1)C(=O)Nc1ccc(F)cc1 (stereo unspecified),"inconclusive [activator, partial curve, poor fit]"
18,O=C(CN1CCN(c2ccccc2F)CC1)c1c[nH]c2ccc(F)cc12,"inconclusive [activator, partial curve]"
19,COc1cc(/C=C2/SC(=O)NC2=O)ccc1OC(=O)c1ccco1,"inconclusive [activator, partial curve, poor fit]"
20,CCN1CCC2(CCN(C(=O)c3cc(COc4cc(C)ccc4C)on3)C2)C1 (stereo unspecified),"inconclusive [activator, full curve, poor fit]"
21,CSc1ccc(CN2CCN(Cc3ccc([N+](=O)[O-])cc3)CC2)cc1,active: 14.6 µM
22,COC(=O)C(C)Sc1nc2c(c(=O)n(C)c(=O)n2C)n1Cc1cccc(C)c1 (stereo unspecified),"inconclusive [activator, single point]"
23,Cc1ccc(NC(=O)C2CCN(C(=O)c3ccccc3C)CC2)nc1,inactive
24,COC(=O)CSc1nc2cc(OC)ccc2n1C,inactive

row,Compound,Potency
1,CSCCC1NC(=O)N(CC(=O)Nc2cccc(S(=O)(=O)N3CCCCCC3)c2)C1=O (stereo unspecified),"inconclusive [activator, single point]"
2,CC(=O)N1CCc2cc(S(=O)(=O)CCC(=O)NCCc3ccc(C)cc3)ccc21,"inconclusive [activator, single point]"
3,CC1CCCC(NC(=O)COC(=O)c2cccc(NS(=O)(=O)/C=C/c3ccccc3)c2)C1C (stereo unspecified),"inconclusive [activator, single point]"
4,C=CCN1C(=O)CSC1=Nc1ccc(O)cc1,"inconclusive [activator, partial curve, poor fit]"
5,CC(Sc1ccsc1[N+](=O)[O-])C(=O)NCCc1ccc(Cl)cc1 (stereo unspecified),"inconclusive [activator, single point]"
6,CN=C1SC(CC(=O)Nc2sc(C)c(C)c2C(=O)OC)C(=O)N1C (stereo unspecified),"inconclusive [activator, single point]"
7,O=C1c2ccccc2NC(c2cccc(Cl)c2)N1N=C1CCCCCC1 (stereo unspecified),inactive
8,COCc1cc(C)nc2sc(C(=O)Nc3ccc(OC)cc3)c(N)c12,"inconclusive [activator, full curve, poor fit]"
9,COc1ccc(S(=O)(=O)N(C)CC(=O)Nc2ccccc2C(F)(F)F)cc1,inactive
10,Cc1ccc(CCNC(=O)CCNS(=O)(=O)c2ccc3c(c2)c(=O)n(C)c(=O)n3C)cc1,"inconclusive [activator, single point]"
11,Cc1[nH][nH]c(=O)c1C(c1c(C)[nH][nH]c1=O)c1cn(Cc2ccc(Cl)c(Cl)c2)c2ccccc12,"inconclusive [activator, single point]"
12,CCCCn1c(N)c(N(CCOC)C(=O)CCN2C(=O)C3CC=CCC3C2=O)c(=O)[nH]c1=O (stereo unspecified),inactive
13,Cc1ccc(SCC(=O)NNC(=O)c2ccccc2)cc1C,inactive
14,O=C1N/C(=N\N=C\c2ccc3ncccc3c2)SC1Cc1ccc(SC(F)F)cc1 (stereo unspecified),active: 16.4 µM
15,O=C(O)c1cccc(CN2C(=O)SC(Nc3ccccc3)C2=O)c1 (stereo unspecified),active: 23.1 µM
16,CCn1cnc2c1c(=O)n(CC(=O)NN)c(=O)n2Cc1ccccc1,"inconclusive [activator, single point]"
17,CCOC(=O)C1CCN(Cc2cc(C(C)C)c(O)c(C(C)C)c2)CC1,"inconclusive [activator, partial curve, poor fit]"
18,O=C(O)c1sccc1Oc1ccc(NS(=O)(=O)c2ccccc2)cc1,inactive
19,COc1cc(/C=C2\NC(=S)N(C)C2=O)ccc1OCc1ccccc1F,"inconclusive [activator, single point]"
20,N#CC1=C(N)Oc2cc(N)ccc2C1c1cccc(F)c1 (stereo unspecified),active: 13 µM
21,COc1ccccc1NC(=O)/C(C#N)=C/c1cccn1C,"inconclusive [activator, full curve, poor fit]"
22,COC(=O)c1ccc(/C=N/NC(=O)CC(=O)NC(C)C)cc1,"inconclusive [activator, single point]"
23,CCCCC[n+]1ccn(C2=C([O-])c3ccccc3C(=O)/C2=N\S(=O)(=O)c2ccccc2)c1,inactive
24,NS(=O)(=O)c1ccc(Nc2c([N+](=O)[O-])cncc2[N+](=O)[O-])cc1,inactive

row,Compound,Potency
1,Cc1cccc(NC(=S)/N=C(\N)Nc2nc(C)c3ccc(C)cc3n2)c1,"inconclusive [activator, partial curve, poor fit]"
2,CS(=O)(=O)N(CC(=O)NCCSC1CCCCC1)c1cccc(F)c1,"inconclusive [activator, partial curve, poor fit]"
3,O=C(NNS(=O)(=O)c1ccc(F)cc1)c1ccccc1F,inactive
4,COc1ccccc1[C@@H]1C(c2ccccc2)=NN(c2ccc(Br)cc2)[C@H]1C(=O)N1CCOC1=O,active: 3.26 µM
5,O=C(Nc1nnc(SCc2ccc(F)cc2)s1)C1CC(=O)N(c2ccc3c(c2)OCCO3)C1 (stereo unspecified),"inconclusive [activator, partial curve, poor fit]"
6,CN(C)CCN(C(=O)CCc1ccccc1)c1nc2c(F)cc(F)cc2s1,inactive
7,Cc1[nH]nc(-c2ccc(OCc3cnn(-c4ccccc4)c3)cc2O)c1Oc1ccc(Cl)cc1,"inconclusive [activator, single point]"
8,Nc1nc(NS(=O)(=O)c2ccc(Cl)cc2)nn1-c1ccccc1,"inconclusive [activator, single point]"
9,O=C(CCC1CCCC1)Nc1ccon1,"inconclusive [activator, partial curve, poor fit]"
10,CCn1c(CNC(=O)c2ccccc2)nc2ccccc21,inactive
11,Cc1ccc(Cn2ccc(C3CC3)n2)cc1,inactive
12,CC1CN(C(=O)COC(=O)c2ccc(N(C)C)cc2)CC(C)O1 (stereo unspecified),"inconclusive [activator, single point]"
13,Cc1nn(-c2ccc(N3CCOCC3)nn2)c(C)c1CCC(=O)NCc1ccccc1,inactive
14,CNC(=O)NC(=O)C(NC1CCCc2ccccc21)c1ccccc1 (stereo unspecified),"inconclusive [activator, single point]"
15,COC1(OC)C(/C=C/c2ccc(C)cc2)C(C#N)(C#N)C1(OC)OC (stereo unspecified),active: 18.4 µM
16,CCC1CCCCN1S(=O)(=O)c1ccc(C(=O)N(CCCN(C)C)c2nc3cc4c(cc3s2)OCO4)cc1 (stereo unspecified),"inconclusive [activator, single point]"
17,Cc1nn(C(C)(C)C)c(OC(=O)c2ccco2)c1Sc1ccccc1,"inconclusive [activator, full curve, poor fit]"
18,Cc1cccc(OCc2nnc(SCC(=O)NC3CCCCC3)n2C)c1,inactive
19,CCCCOc1ccc(C2CCC(C(C)=O)C(C)C2)cc1 (stereo unspecified),"inconclusive [activator, partial curve, poor fit]"
20,CC1=C/C(=C(\c2ccc(O)c(C)c2)c2ccccc2S(=O)(=O)O)C=CC1=O,inactive
21,CN1CCN(C(=O)CN2C(=O)COc3ccc(S(=O)(=O)N4CCOCC4)cc32)CC1,inactive
22,CCn1c(CC(=O)Nc2ccccc2F)nnc1SCC(=O)NC1CCCCC1,"inconclusive [activator, full curve, poor fit]"
23,CCS(=O)(=O)N1CCC(C(=O)NCc2cc(OC)ccc2OC)CC1,"inconclusive [activator, single point]"
